These results are taken from the supplement of paper PMC3334620.

Over roughly 33,000 sequences, “E-score (-0.5 to 0.5)” has its median near -0.054; the highest 2% begin near 0.35. This is one part of the list.

This assay deals with T1, Stb5 (UniProt P38699).
T1 sequence: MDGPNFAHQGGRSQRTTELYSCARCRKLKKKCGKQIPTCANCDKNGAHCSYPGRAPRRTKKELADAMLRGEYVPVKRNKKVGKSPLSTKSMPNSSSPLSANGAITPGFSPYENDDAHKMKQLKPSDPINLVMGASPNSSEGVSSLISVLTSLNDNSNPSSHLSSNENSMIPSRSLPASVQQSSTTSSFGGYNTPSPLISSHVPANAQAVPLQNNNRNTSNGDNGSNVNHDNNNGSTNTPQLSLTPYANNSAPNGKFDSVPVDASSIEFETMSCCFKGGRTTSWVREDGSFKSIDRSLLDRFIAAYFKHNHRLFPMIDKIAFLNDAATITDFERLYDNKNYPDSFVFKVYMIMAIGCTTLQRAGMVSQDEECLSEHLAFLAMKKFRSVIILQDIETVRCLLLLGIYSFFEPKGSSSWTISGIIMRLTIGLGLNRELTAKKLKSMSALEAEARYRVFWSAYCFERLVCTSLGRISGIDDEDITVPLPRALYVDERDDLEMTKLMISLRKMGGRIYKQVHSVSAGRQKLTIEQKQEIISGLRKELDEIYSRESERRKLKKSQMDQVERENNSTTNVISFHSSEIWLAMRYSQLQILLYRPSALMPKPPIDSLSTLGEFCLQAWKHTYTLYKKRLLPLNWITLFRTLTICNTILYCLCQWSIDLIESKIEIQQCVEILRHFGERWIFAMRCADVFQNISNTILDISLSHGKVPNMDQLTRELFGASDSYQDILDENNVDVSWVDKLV
Nature of the assay: PBM E-score (8-mer binding enrichment) (E-score (-0.5 to 0.5)); higher = stronger / more preferred TF binding; most listed sequences are background and not binding sites. The note with it: protein concentration: 200 nM; construct: GST-full length. The gist of the method: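 Each ungapped eight-base word and its reverse complement, pooled, received an E-score from the Universal PBM Analysis Suite. Underlying scans, normalised with masliner, recorded fluorescent anti-GST bound to GST-tagged yeast transcription factors. These were applied at about 100-200 nM to universal all-10-mer Agilent arrays double-stranded by primer extension.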
Consider AATATGAC, for which the “PBM E-score” value was determined as 0.144.
For CCTATTAA, the “PBM E-score” value was -0.11.
Take CAGATAAC: the “PBM E-score” value was -0.0135.
Turning to ACTCGTGG, the “PBM E-score” value was -0.251.
With CTCTCAGA, the “PBM E-score” value is -0.301.
For the sequence CTTTTAAC, the “PBM E-score” value was determined as 0.00212.
In the case of GTGCGTCA, the “PBM E-score” value came out at 0.0663.
CAACTAGC: the “PBM E-score” value is -0.0524.
As to GGTACGCA, the “PBM E-score” value was determined as 0.00984.
Regarding GTGCCGTA, the “PBM E-score” value worked out at 0.234.
With CGGACAGA the figure was 0.266; with CCCGGACA, 0.315.
As for ACACGCGA, the “PBM E-score” value is -0.128.
With CTTATGTA, the “PBM E-score” value is -0.0616.
The value for ATCCAGCC was -0.198; that for TAACGTAA was -0.0943.
For the sequence TAGATTCA, the “PBM E-score” value is -0.207.
With AAAGTCCG the figure was 0.466; with AGACTGAA, -0.0768; with CCCGTTCG, 0.307.
With ACCTCCAT, the “PBM E-score” value was -0.0211.
AACTTGGT: the “PBM E-score” value was -0.0918.
With ATTCAGAG, the “PBM E-score” value amounted to 0.0704.
Regarding CCGAACTA, the “PBM E-score” value was 0.177.
On to CACGAGAC, for which the “PBM E-score” value was -0.0206.
For the sequence GTCGGTCA, the “PBM E-score” value was 0.259.
Take CGGGTCAC: the “PBM E-score” value was -0.0843.
On to AAACGGTT, for which the “PBM E-score” value is 0.00494.
The value for ACGCCTAG was -0.0889; that for AGAATCGA was -0.28.
On to CGTATCAG, for which the “PBM E-score” value is 0.0749.
With ACGCTCTG the figure was -0.287.
As to CCACCATA, the “PBM E-score” value was -0.127.
Regarding ATTTGATG, the “PBM E-score” value was -0.00475.
Regarding GTCTCCCA, the “PBM E-score” value was -0.244.
The value for ACGTTAAC was -0.0959.
Take CGAAGATA: the “PBM E-score” value stood at 0.0132.
In the case of ACATTCAC, the “PBM E-score” value was -0.144.
In the case of CATCCTTA, the “PBM E-score” value is -0.202.
As to AGAAGGGG, the “PBM E-score” value was -0.182.
In the case of CCGCCTCA, the “PBM E-score” value was determined as 0.299.
For the sequence CCTGCGCG, the “PBM E-score” value worked out at 0.0663.
With CTCTTGGA the figure was -0.085; with CCAGGGAG, -0.319; with ATTGACTA, -0.171.
Take GGCCGTCA: the “PBM E-score” value worked out at 0.155.
For the sequence GAAATCTC, the “PBM E-score” value is -0.0474.
In the case of GACTGTTA, the “PBM E-score” value was -0.0185.
Regarding TCTGCACA, the “PBM E-score” value was -0.108.
AAGCAGGC: the “PBM E-score” value is -0.0888.
For CTGTTCCA, the “PBM E-score” value is -0.313.
As for GACGGCCC, the “PBM E-score” value is 0.211.
As to ACCCGGCT, the “PBM E-score” value stood at 0.227.
On to TCGGCACA, for which the “PBM E-score” value was 0.253.
The value for ATCATCCG was 0.142; that for CCGAGTTA was 0.129; that for CTTCGTGA was -0.0544.
For ATGGGTGC, the “PBM E-score” value is -0.0771.
Consider AGGAGTCC, for which the “PBM E-score” value is -0.092.
As to AAACACTC, the “PBM E-score” value was -0.0554.
On to AGGATCTC, for which the “PBM E-score” value is -0.211.
For AGCACACA, the “PBM E-score” value is -0.343.
With CTGCACAA the figure was -0.209; with CAACCGAC, 0.148.
For CTGATATC, the “PBM E-score” value was found to be 0.211.
The value for AATCTAAA was -0.0331; that for AGATGAGA was -0.167; that for ACCCTGAT was 0.0149.
Regarding ACAGAACT, the “PBM E-score” value was -0.198.
On to AACGATGG, for which the “PBM E-score” value is -0.182.
Turning to AAGTCTAG, the “PBM E-score” value was -0.00941.
Regarding ACCATGAC, the “PBM E-score” value came to 0.0247.
As to ATTTGACC, the “PBM E-score” value worked out at 0.116.
With ACACAGTA, the “PBM E-score” value is -0.234.
In the case of AAGACAAC, the “PBM E-score” value stood at 0.012.
Take GCAAGGAC: the “PBM E-score” value was determined as 0.0542.
The value for GCACCTGA was -0.172.
In the case of GCGGAAAA, the “PBM E-score” value worked out at 0.155.
GTGCACGA: the “PBM E-score” value was -0.24.
In the case of CCTTCTCG, the “PBM E-score” value was -0.259.
The value for CAGAGAGG was -0.221; that for GGAGTGAC was 0.202.
With ATGATATG, the “PBM E-score” value is 0.0664.
For ACTTTGAA, the “PBM E-score” value stood at 0.029.
In the case of GTCGAACA, the “PBM E-score” value is -0.155.
CAGTAGTC: the “PBM E-score” value is -0.205.
